About 11,000 (3.5%) of roughly 310,000 compounds were called active. This list was built around the results that the source calls inconclusive (neither active nor inactive); the mix of calls is not that of the screen. Calls follow the shape of the dose curve; as a rule, active = well fitted inhibition curve with a large enough effect; inconclusive = small, poorly fitted or top-dose-only effect, or effect the other way; inactive = flat fitted curve, though single readings scatter. Potencies of inconclusive entries are left out as doubtful fits.
assay: VP16 counterscreen qHTS for inhibitors of ROR gamma transcriptional activity; conditions: Drosophila S2 Gal4-VP16 UAS-luciferase, luminescence, 20 h; series mostly up to 53.6 µM;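 also: Gal4-VP16 expression switched on by copper sulfate through the metallothionein promoter; nearly all actives have a fitted effect of over 50% in size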
Potency is read from the fitted curve at half-maximal effect; tags tell the direction and shape of the fitted curve.

| Compound | Potency |
| --- | --- |
| CCNC(=S)N(CCc1c(C)[nH]c2ccc(C)cc12)Cc1cccs1 | inconclusive [inhibitor, single point] |
| Cc1ccc(S(=O)(=O)N2CCCC(NC(=O)N3CCN(c4ccccc4)CC3)C2)cc1 (stereo unspecified) | inactive |
| CS(=O)(=O)Nc1cccc(-c2nccc(-n3ccnc3)n2)c1 | inactive |
| C/C(=N\NC(=O)C1CCCN(S(=O)(=O)c2ccccc2)C1)c1ccccn1 (stereo unspecified) | active: 5.01 µM |
| Cc1cc2c(N3CCCCC3C)ncnc2s1 (stereo unspecified) | inconclusive [inhibitor, single point] |
| COc1ccccc1C(=O)N/C(=N/c1nc(C)cc(C)n1)Nc1ccccc1 | inconclusive [inhibitor, single point] |
| CC(C)Cn1c2c(c(O)c(C(=O)Nn3c(Cc4ccccc4)nc4ccccc4c3=O)c1=O)CCCC2 | inactive |
| CN(C)c1ccc(N/C=C/C(=O)c2ccccc2)cc1 | active: 10 µM |
| CCN(Cc1cnn(C)c1)C(=O)c1ccc2nc(Cc3cccc(Cl)c3)oc2c1 | inactive |
| COc1ccc(NC(=O)C(OC(=O)c2ccc([N+](=O)[O-])o2)c2ccccc2)cc1Cl (stereo unspecified) | inconclusive [inhibitor, single point] |
| O=C(Nc1ncc(Cc2cc(Cl)ccc2Cl)s1)c1ccc([N+](=O)[O-])cc1 | active: 4.47 µM |
| C/C(=N\NC(=O)c1ccc(OC2OCCOC2Oc2ccc(C(=O)N/N=C(\C)c3ccncc3)cc2)cc1)c1ccncc1 (stereo unspecified) | inconclusive [inhibitor, partial curve] |
| O=C(c1ccc([N+](=O)[O-])s1)N1CCN(c2ccc(C(F)(F)F)cn2)CC1 | inconclusive [inhibitor, single point] |
| CC1CN(S(=O)(=O)c2cccc(-c3cn4ccccc4n3)c2)CC(C)O1 (stereo unspecified) | active: 0.355 µM |
| Cc1cccc(NC(=O)c2ccc(N3C(=O)C4C5C=CC(C6CC56)C4C3=O)cc2)c1 (stereo unspecified) | inconclusive [inhibitor, single point] |
| O=C(CSC1=NNC(c2ccccn2)S1)Nc1ccccc1 (stereo unspecified) | active: 2.51 µM |
| CCCCC(=O)Nc1ccc(C(=O)NNC(=S)NC(=O)c2cccs2)cc1 | active: 8.91 µM |
| CC(C)(C)c1csc(NC(=O)C2COc3ccccc3O2)n1 (stereo unspecified) | inconclusive [activator, single point] |
| CCOC(=O)Cn1c(CN2CCc3ccccc3C2)nc2c1c(=O)n(C)c(=O)n2C | active: 3.98 µM |
| COc1ccc(CCNC(=S)Nc2ccc(C)cc2C)cc1 | active: 7.08 µM |
| O=C(Nc1cnc2ccccc2c1)c1ccco1 | inconclusive [inhibitor, single point] |
